{
  "source": "paper PMC4336329",
  "about": "(PLoS ONE, 2015)",
  "note": "About 2,200 (0.71%) of roughly 310,000 compounds showed an effect of 50% or more. Effects have a minus sign here. The list shows a part of the results.",
  "data": [
    {"molecular_target": "human ether-à-go-go-related gene (hERG) potassium channel (human, UniProt Q12809)", "sequence (Q12809 whole entry, looked up)": "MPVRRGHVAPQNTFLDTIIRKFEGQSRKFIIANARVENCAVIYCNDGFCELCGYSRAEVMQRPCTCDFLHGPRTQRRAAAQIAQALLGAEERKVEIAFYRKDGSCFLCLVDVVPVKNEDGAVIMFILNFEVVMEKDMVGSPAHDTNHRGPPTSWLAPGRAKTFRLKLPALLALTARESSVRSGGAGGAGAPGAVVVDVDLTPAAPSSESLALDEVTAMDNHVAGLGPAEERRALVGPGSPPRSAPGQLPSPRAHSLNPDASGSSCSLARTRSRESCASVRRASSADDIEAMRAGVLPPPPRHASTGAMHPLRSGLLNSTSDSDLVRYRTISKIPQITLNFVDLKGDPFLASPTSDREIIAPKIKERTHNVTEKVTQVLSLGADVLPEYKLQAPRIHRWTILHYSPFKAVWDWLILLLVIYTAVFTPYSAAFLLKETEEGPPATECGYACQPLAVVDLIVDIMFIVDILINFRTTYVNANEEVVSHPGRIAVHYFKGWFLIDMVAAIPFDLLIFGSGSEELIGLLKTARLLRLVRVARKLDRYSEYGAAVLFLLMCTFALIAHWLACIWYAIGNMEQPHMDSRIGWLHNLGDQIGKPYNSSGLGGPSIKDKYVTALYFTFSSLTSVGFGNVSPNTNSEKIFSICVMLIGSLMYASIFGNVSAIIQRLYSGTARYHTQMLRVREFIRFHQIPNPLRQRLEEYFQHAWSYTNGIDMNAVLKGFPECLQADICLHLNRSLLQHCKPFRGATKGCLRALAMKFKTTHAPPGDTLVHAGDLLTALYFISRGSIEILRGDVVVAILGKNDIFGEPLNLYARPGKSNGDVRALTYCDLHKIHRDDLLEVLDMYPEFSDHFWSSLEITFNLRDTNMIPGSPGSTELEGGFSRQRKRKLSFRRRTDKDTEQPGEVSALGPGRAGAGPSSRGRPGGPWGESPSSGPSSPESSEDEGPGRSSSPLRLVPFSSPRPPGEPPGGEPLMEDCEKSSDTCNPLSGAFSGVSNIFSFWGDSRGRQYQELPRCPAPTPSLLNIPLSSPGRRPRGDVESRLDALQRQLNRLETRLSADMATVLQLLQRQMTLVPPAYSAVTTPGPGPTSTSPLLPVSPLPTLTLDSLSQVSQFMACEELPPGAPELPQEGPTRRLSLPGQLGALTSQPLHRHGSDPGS", "test": "primary screen, population patch clamp on CHO cells stably expressing hERG", "units": {"hERG current change (%, negative = inhibition) at 1uM": "%"}, "values": [
      {"smiles": "O=C(N[C@@H](Cc1c[nH]c2ccccc12)C(=O)O)C1CCN(S(=O)(=O)c2cccs2)CC1", "hERG current change (%, negative = inhibition) at 1uM": 12.2},
      {"smiles": "CCOC(=O)c1c(-c2ccccc2)csc1NC(=O)CCN1C(=O)c2ccccc2C1=O", "hERG current change (%, negative = inhibition) at 1uM": 13},
      {"smiles": "CCN(CC)C(=O)CN1C(=O)c2cccc3cccc1c23", "hERG current change (%, negative = inhibition) at 1uM": 14},
      {"smiles": "O=C(N/N=C/c1cccnc1)c1ccccc1OCc1ccc(Cl)cc1", "hERG current change (%, negative = inhibition) at 1uM": 5.37},
      {"smiles": "CCOc1ccc(OCC(=O)Nc2nccs2)cc1", "hERG current change (%, negative = inhibition) at 1uM": 20.1},
      {"smiles": "O=C(NCc1ccc2c(c1)OCO2)C1CCCN(S(=O)(=O)c2cccc3cccnc23)C1", "note": "(stereo not drawn)", "hERG current change (%, negative = inhibition) at 1uM": 2.31},
      {"smiles": "Br.Fc1ccc(-c2csc(NC3=NCCC3)n2)cc1", "hERG current change (%, negative = inhibition) at 1uM": -1.99},
      {"smiles": "Cc1oc(=O)c(NC(=O)c2ccccc2)cc1C(C)O", "note": "(stereo not drawn)", "hERG current change (%, negative = inhibition) at 1uM": 21.9},
      {"smiles": "COc1ccc(C(C(=O)NC2CCCCC2)N(C(=O)c2ccco2)c2ccccc2OC)cc1", "note": "(stereo not drawn)", "hERG current change (%, negative = inhibition) at 1uM": 11.2},
      {"smiles": "CCOC(=O)C(NC(C)=O)C(OC(C)=O)c1cccc(N(CCO)CCO)c1", "note": "(stereo not drawn)", "hERG current change (%, negative = inhibition) at 1uM": 16.2},
      {"smiles": "CC1CCC2(CC1)NC(=O)N(CC(=O)NC(=O)NC1CCCC1)C2=O", "note": "(stereo not drawn)", "hERG current change (%, negative = inhibition) at 1uM": 12.2},
      {"smiles": "CCOC(=O)N1CCN(C(=O)c2ccc([N+](=O)[O-])cc2Cl)CC1", "hERG current change (%, negative = inhibition) at 1uM": 6.8},
      {"smiles": "CN1CC(=O)N2C(c3ccc(Cl)cc3)c3[nH]c4ccccc4c3C[C@H]2C1=O", "note": "(stereo partly drawn)", "hERG current change (%, negative = inhibition) at 1uM": 6.68},
      {"smiles": "O=C(CSCc1ccc(Cl)cc1)Nc1cccc(C(=O)Nc2ccccc2C(=O)O)c1", "hERG current change (%, negative = inhibition) at 1uM": 16.4},
      {"smiles": "COc1ccc2ccccc2c1/C=N/NC(=O)c1ccc(C)nc1", "hERG current change (%, negative = inhibition) at 1uM": 10.3},
      {"smiles": "O=C(NC1CCCN(Cc2ccc(Cl)cc2)C1)c1cccc(F)c1", "note": "(stereo not drawn)", "hERG current change (%, negative = inhibition) at 1uM": -18.6},
      {"smiles": "CCOc1cccc(OCCn2cnc3ccccc3c2=O)c1", "hERG current change (%, negative = inhibition) at 1uM": 7.46},
      {"smiles": "CC(=O)N/C(=C/c1ccc2c(c1)OCO2)C(=O)Nc1ccccc1", "hERG current change (%, negative = inhibition) at 1uM": -13.5},
      {"smiles": "CC1=CCC(C(=O)O)C(C(=O)Nc2cccnc2)C1", "note": "(stereo not drawn)", "hERG current change (%, negative = inhibition) at 1uM": 5.97},
      {"smiles": "O=C(Cn1cnc([N+](=O)[O-])n1)NCCO", "hERG current change (%, negative = inhibition) at 1uM": 14.6},
      {"smiles": "CC1([N+](=O)[O-])COC2(OC1)C(=O)Nc1ccccc12", "note": "(stereo not drawn)", "hERG current change (%, negative = inhibition) at 1uM": 12.9},
      {"smiles": "COc1ccc(/C=C/C(=O)OCC(=O)Nc2ccc(Cl)cn2)cc1", "hERG current change (%, negative = inhibition) at 1uM": 12.4},
      {"smiles": "Br.CC(C)(C)c1cc(C2=CSC3=NCCN23)cc(C(C)(C)C)c1O", "hERG current change (%, negative = inhibition) at 1uM": -36.9},
      {"smiles": "Cc1nc2cc(-c3ccccc3)[nH]n2c(=O)c1C", "hERG current change (%, negative = inhibition) at 1uM": 12},
      {"smiles": "COCCCn1c2nc3ccccc3nc2c2c(=O)n(Cc3cccs3)cnc21", "hERG current change (%, negative = inhibition) at 1uM": 8.65},
      {"smiles": "CC(=O)C(Cc1ccccc1)(Cc1ccccc1)C(C)=O", "hERG current change (%, negative = inhibition) at 1uM": 16},
      {"smiles": "NC(=O)c1c(NC(=O)CSc2nnc(-c3ccccc3)n2CC2CCCO2)sc2c1CCC2", "note": "(stereo not drawn)", "hERG current change (%, negative = inhibition) at 1uM": -3.04},
      {"smiles": "O=C(Cc1ccccc1)OCC(=O)N1CCN(S(=O)(=O)c2ccc(Cl)cc2)CC1", "hERG current change (%, negative = inhibition) at 1uM": 2.26},
      {"smiles": "O=C(OCc1c(F)cccc1Cl)c1cnc(Cl)c(Cl)c1", "hERG current change (%, negative = inhibition) at 1uM": 11.2},
      {"smiles": "COc1ccc(C2=NOC(C)(c3nnc(-c4ccncc4)o3)C2)cc1", "note": "(stereo not drawn)", "hERG current change (%, negative = inhibition) at 1uM": 14.6},
      {"smiles": "COc1ccc(C2CN(C)CC2C(=O)c2ccc(C)cc2)cc1Cl", "note": "(stereo not drawn)", "hERG current change (%, negative = inhibition) at 1uM": -23.4},
      {"smiles": "C=CCOc1ccc(CC2C(=O)N(C)C(=O)N(C)C2=O)cc1", "hERG current change (%, negative = inhibition) at 1uM": 23.3},
      {"smiles": "O=C(CNC(=O)c1cccs1)NCCc1ccco1", "hERG current change (%, negative = inhibition) at 1uM": 10.8},
      {"smiles": "Cc1cnc(C(=O)OCC(=O)NCc2ccc3c(c2)OCO3)cn1", "hERG current change (%, negative = inhibition) at 1uM": 9.23},
      {"smiles": "COc1ccc(CCN2C(=O)C(Oc3ccccc3C)C2c2ccc3c(c2)OCO3)cc1", "note": "(stereo not drawn)", "hERG current change (%, negative = inhibition) at 1uM": -5.92},
      {"smiles": "Cc1ccc(CNC(=O)c2ccc(CS(=O)(=O)c3ccccc3)o2)cc1", "hERG current change (%, negative = inhibition) at 1uM": 9.49},
      {"smiles": "CCc1cccc(C)c1NC(=S)N1CCCC1C(=O)O", "note": "(stereo not drawn)", "hERG current change (%, negative = inhibition) at 1uM": 8.15},
      {"smiles": "CCOC(=O)C1CCN(C(=O)c2cc(S(=O)(=O)N3CCc4ccccc43)ccc2OC)CC1", "hERG current change (%, negative = inhibition) at 1uM": -6.4},
      {"smiles": "CCOCCCNC(=O)C1CCN(S(=O)(=O)N(CC(C)C)CC(C)C)CC1", "hERG current change (%, negative = inhibition) at 1uM": 8.47},
      {"smiles": "CNC(=O)c1ccsc1NC(=O)c1ccc(S(=O)(=O)N2CCCc3ccccc32)cc1", "hERG current change (%, negative = inhibition) at 1uM": 6.34},
      {"smiles": "CCOC(=O)Cn1nc(C)c(NC(=O)c2cccc([N+](=O)[O-])c2)c1C", "hERG current change (%, negative = inhibition) at 1uM": -7.94},
      {"smiles": "COc1ccc(CC(=O)NNC(=O)CSc2nnc(C)n2-c2ccccc2)cc1", "hERG current change (%, negative = inhibition) at 1uM": -1.11},
      {"smiles": "O=C(NCC1CCCO1)C(=O)N/N=C\\c1ccc2c(c1)OCO2", "note": "(stereo not drawn)", "hERG current change (%, negative = inhibition) at 1uM": -7.93},
      {"smiles": "COc1ccc(S(=O)(=O)n2ccc(-c3cnc(-c4ccccc4)s3)n2)cc1", "hERG current change (%, negative = inhibition) at 1uM": 11.7},
      {"smiles": "COc1ccc(Cl)cc1NC(=O)CN(C)C(=O)CCSc1ccc(C)cc1", "hERG current change (%, negative = inhibition) at 1uM": 17.7},
      {"smiles": "CC(C)C(NC(=O)c1c(F)cccc1F)C(=O)NC1CC(C)(C)NC(C)(C)C1", "note": "(stereo not drawn)", "hERG current change (%, negative = inhibition) at 1uM": 15.8},
      {"smiles": "N#Cc1cc2c(nc1SCC(=O)N1CCCCC1)CCCCC2", "hERG current change (%, negative = inhibition) at 1uM": 8.46},
      {"smiles": "COC(=O)c1cc2nc(-c3ccc(OC)cc3)cc(C(F)(F)F)n2n1", "hERG current change (%, negative = inhibition) at 1uM": 13.5},
      {"smiles": "c1ccc2c(c1)ncc1cccn12", "hERG current change (%, negative = inhibition) at 1uM": 8.17},
      {"smiles": "COc1cccc(NC(=O)c2nc3nc(C)cc(C(F)F)n3n2)c1", "hERG current change (%, negative = inhibition) at 1uM": 13.3},
      {"smiles": "COc1cc(Br)c(C(C)NC(=O)c2cccc(Br)c2)cc1OC", "note": "(stereo not drawn)", "hERG current change (%, negative = inhibition) at 1uM": 2.43},
      {"smiles": "O=C(NC1CC1)c1cc2ccccc2o1", "hERG current change (%, negative = inhibition) at 1uM": 12.2},
      {"smiles": "COc1ccc(-c2cc(C(=O)OCC(=O)NC3CC3)c3ccccc3n2)cc1", "hERG current change (%, negative = inhibition) at 1uM": 6.23},
      {"smiles": "CCn1c(NCc2cccs2)nc2ccccc21", "hERG current change (%, negative = inhibition) at 1uM": 0.401},
      {"smiles": "Cc1ccc(-c2cc(C(F)F)n3ncc(C(=O)Nc4ccc(S(=O)(=O)Nc5ccccc5C)cc4)c3n2)cc1", "hERG current change (%, negative = inhibition) at 1uM": 6.82},
      {"smiles": "O=C(NS(=O)(=O)Oc1ccc(Cl)cc1)OC[C@@H]1CCCN2CCCC[C@H]12", "hERG current change (%, negative = inhibition) at 1uM": 19.2},
      {"smiles": "C=CCn1c(SCCN2CCOCC2)nc2c1c(=O)[nH]c(=O)n2C", "hERG current change (%, negative = inhibition) at 1uM": 8.38}
    ]}
  ]
}
